According to PubChem BioAssay AID624417 (National Center for Advancing Translational Sciences (NCATS), 2012):
Among all 410,000 compounds or so, about 6,400 (1.6%) were called active. Inconclusive results, whose numbers are uncertain, are shown with a selection of clear calls. Calls come from the whole dose curve; as a rule, active = well fitted inhibition curve with a large enough effect; inconclusive = small, poorly fitted or top-dose-only effect; inactive = no such curve, though single readings can be large or run the other way. No potency is given beside an inconclusive call; the fits are too rough.

Target: Glucagon-like peptide 1 receptor (Homo sapiens) (UniProt P43220)
Assay: qHTS of GLP-1 Receptor Inverse Agonists (Inhibition Mode); note: nearly all actives have a fitted effect of over 55% in size
Details: HEK293 GLP-1R CRE-luciferase, luminescence, 24 h, GLP-1R form is constitutively active; activity change, negative = inhibition: at 38.3 µM (top of the series) unless noted
How it was run: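 GLP-1R inverse agonism mode: basal reporter luminescence in engineered HEK293 cells measured after one day of compound exposure at 37 deg C, with a 12 min room-temperature detection step.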
% is set by controls: 0 for no effect and ±100 for the full control effect; potency is the fitted concentration of half-maximal effect; tags give direction and shape of the fitted curve.

UniProt P43220, sequence (P43220 whole entry, looked up): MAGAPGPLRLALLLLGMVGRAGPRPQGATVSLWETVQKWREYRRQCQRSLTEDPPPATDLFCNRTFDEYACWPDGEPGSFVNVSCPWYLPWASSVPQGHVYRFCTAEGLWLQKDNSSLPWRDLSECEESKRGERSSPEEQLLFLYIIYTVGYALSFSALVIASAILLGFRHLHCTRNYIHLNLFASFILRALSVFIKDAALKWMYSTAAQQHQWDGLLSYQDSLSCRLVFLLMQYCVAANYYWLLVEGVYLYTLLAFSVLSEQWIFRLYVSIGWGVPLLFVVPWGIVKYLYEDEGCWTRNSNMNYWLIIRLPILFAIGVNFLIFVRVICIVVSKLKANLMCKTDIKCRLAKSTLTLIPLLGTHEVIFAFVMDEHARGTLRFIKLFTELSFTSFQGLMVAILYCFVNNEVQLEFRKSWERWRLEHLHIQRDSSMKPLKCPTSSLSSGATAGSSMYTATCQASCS

SMILES | Potency | activity change, negative = inhibition
CCOc1ccc(Nc2nc(Cl)nc(N3CCN(c4ccc(OC)cc4)CC3)n2)cc1 | inconclusive [inhibitor, partial curve, poor fit] | –
CN(C)C(=O)CSc1nnc(-c2ccco2)n1-c1ccccc1 | inactive | –
CC(=O)Nc1cc2nn(-c3ccccc3)nc2cc1Cl | inactive | –
CCc1nc2ccccc2n1CCc1ccccc1 | inconclusive [inhibitor, partial curve, poor fit] | –
CC1(C)CC(=O)C(C=Nc2cc(C(=O)c3ccccc3)ccc2N)=C(O)C1 | inconclusive [inhibitor, single point] | –
Cc1ccc2c(c1)C1CN(C)CCC1N2S(=O)(=O)c1ccccc1F (stereo not drawn) | inconclusive [inhibitor, single point] | –
CC(C)Oc1ccc(C(=O)/C=C2/C(=O)Nc3ccccc32)cc1 | inconclusive [inhibitor, partial curve, poor fit] | –
CNc1n[nH]c(=S)s1 | inactive | –
Cc1cc(OCC(=O)NCCc2nc3ccccc3[nH]2)cc(C)c1Cl | inconclusive [inhibitor, single point] | –
O=C1C=C(NCc2ccc(Cl)c(Cl)c2)C2(CCCCC2)O1 | inconclusive [inhibitor, partial curve, poor fit] | –
COc1ccccc1Cc1nc(-c2ccc(Br)o2)no1 | inconclusive [inhibitor, single point] | –
CCCCc1ccc(-n2c(Cc3cccs3)n[nH]c2=S)cc1 | inconclusive [inhibitor, partial curve, poor fit] | –
COc1ccc(N2CC(NS(=O)(=O)c3ccc4ccccc4c3)CC2=O)cc1 (stereo not drawn) | inconclusive [inhibitor, single point] | –
Cc1ccc(CNC(=O)Cn2c(SCC(=O)Nc3ccc(F)cc3)nc3ccccc32)cc1 | inconclusive [inhibitor, single point] | –
CCOC(=O)Cc1csc(/N=C/c2c(O)n(-c3ccccc3C(F)(F)F)c(=O)c3ccccc23)n1 | inconclusive [inhibitor, partial curve, poor fit] | –
COc1cccc(C(=O)NCCc2csc3nc(-c4ccccc4F)nn23)c1OC | inactive | –
CCN(CC)S(=O)(=O)c1cccc(NC(=O)COc2ccc(F)cc2Br)c1 | inconclusive [inhibitor, single point] | –
CCOC(=O)c1cc(-c2ccc(OC)cc2)n(CCC(=O)NCCc2ccccc2)c1C | inconclusive [inhibitor, single point] | –
COc1ccc(Cl)cc1N1C(=O)CC(Sc2ccccc2N)C1=O (stereo not drawn) | inconclusive [inhibitor, single point] | –
O=C(COc1ccc(Cc2ccccc2)cc1)c1ccc(F)cc1 | inconclusive [inhibitor, single point] | –
O=c1c2ccccc2oc2ccc(Oc3ccccc3)cc12 | inconclusive [inhibitor, single point] | –
CC1C(=O)N(Cc2cccc(F)c2)c2ccccc2N1C(=O)c1ccccc1 (stereo not drawn) | – | inconclusive: -61.2% [inhibitor]

SMILES | Potency | activity change, negative = inhibition
COc1ccc(C(C(=O)NC2CCCC2)N(C(=O)c2ccco2)c2cc3c(cc2C(C)=O)OCO3)cc1 (stereo not drawn) | inactive | –
CCOc1ccc(NC(=O)c2ccco2)cc1 | inactive | –
Cc1nc2ccccc2n1-c1ccccc1 | inconclusive [inhibitor, partial curve, poor fit] | –
O=C(c1ccccc1)C1CC=CCC1C(=O)c1ccccc1 (stereo not drawn) | inconclusive [inhibitor, partial curve, poor fit] | –
O=C(C1CCCC1)N1CCC(CO)(Cc2ccccc2Cl)CC1 | inconclusive [inhibitor, single point] | –
COC(=O)c1ccc(NC(=O)CN2CCN(S(=O)(=O)c3cc(Cl)ccc3OC)CC2)cc1 | inconclusive [inhibitor, full curve] | –
Cc1ccc(NC(Cc2cc(C)no2)c2ccccc2)cc1 (stereo not drawn) | inconclusive [inhibitor, partial curve, poor fit] | –
Cc1nc2ccc(NC(=O)c3ccc(Cl)c([N+](=O)[O-])c3)cc2s1 | inactive | –
Clc1ccc(C[n+]2csc3ccccc32)cc1 | inconclusive [inhibitor, single point] | –
COc1nc(C)cc(C)c1S(=O)(=O)c1ccc(Cl)cc1 | inconclusive [inhibitor, single point] | –
CC(C)(C)SCCSC1=CC(=O)CC(c2ccccc2)C1 (stereo not drawn) | inconclusive [inhibitor, partial curve, poor fit] | –
NC(=Nc1ccccc1)NC(=O)c1nc(Cl)c(N)nc1N | inactive | –
O=C(CSc1ccccc1Cl)N1CCC(c2nc3ccccc3s2)CC1 | inconclusive [inhibitor, partial curve, poor fit] | –
O=C(Nc1ccc(Oc2c(F)c(F)c(F)c(F)c2F)cc1)OC1CCN2Cc3ccccc3N=C12 (stereo not drawn) | inconclusive [inhibitor, full curve, poor fit] | –
Cc1nn(CCc2nn[nH]n2)c2nc(-c3ccc(Br)cc3)cc(C(F)(F)F)c12 | inconclusive [inhibitor, full curve, poor fit] | –
CC[C@]1(c2ccccc2C)ON(c2ccccc2C(F)(F)F)C1=O | inconclusive [inhibitor, partial curve, poor fit] | –
COc1ccc(S(=O)(=O)NCc2ccccn2)cc1NC(=O)c1ccc(C)cc1 | inconclusive [inhibitor, full curve, poor fit] | –
CNc1ncc(C(=O)c2ccc(Cl)cc2)s1 | inactive | –
COc1ccc(NC(=O)/C=C\C(=O)N(c2ccc(C(C)C)cc2)C(C(=O)NCc2ccco2)c2ccc(C)cc2)cc1 (stereo not drawn) | active: 10 µM | –
Fc1ccc(NC(=S)N2CCc3ccccc32)cc1 | inconclusive [inhibitor, single point] | –
CC1(C(=O)Nc2ccc(Cl)c(Cl)c2)CCN1C(=O)Cc1ccc(-c2ccccc2)cc1 (stereo not drawn) | inconclusive [inhibitor, partial curve, poor fit] | –
